Results on 90 compounds are retold here after PubChem BioAssay AID463173 (ICCB-Longwood Screening Facility, Harvard Medical School, 2010).

The structures appear in SMILES notation. Hit rate of the full screen: of about 52,000 compounds, about 1,700 (3.3%) were called active. Rule as the data show it: active = survival mostly below about 52% (no sharp cut-off); inactive = mostly above about 56%. The list shows a part of the results.

This assay relates to Wild type. Description: growth inhibition of S. aureus wild type versus tarO mutant, primary screen, teichoic acid synthesis inhibitors, RN4220, OD600 (AID 463173). Conditions: S. aureus RN4220 wild type/DeltatarO growth, OD600, 18 h, hits give low values, screened at 18.75 µg/mL (by protocol).
Take `COc1cc(C2CC(=O)c3c([nH]c(C(=O)OCc4ccc(C)cc4)c3C)C2)cc(OC)c1OC` (stereo not given): the survival is inactive: 82%.

With `Cc1ccccc1NC(=O)Cn1c(=O)n(CCCCCC(=O)NCc2ccccc2Cl)c(=O)c2sccc21`, the survival was inactive: 129%.

In the case of `COCCCNC(=O)c1[nH]c2ccccc2c1Sc1ccc(C)cc1`, the survival is inactive: 81%.

As to `CN(C)c1ccc(CNC(=O)c2cnc3sc(N4CCCC4)nn3c2=O)cc1`, the survival is inactive: 73%.

In the case of `Brc1ccc(-c2csc(NN=C3CCCC3)n2)cc1`, the survival is inactive: 66%.

As to `CCS(=O)(=O)N1CCc2cc(C(=O)NCc3ccc(Cl)cc3)ccc21`, the survival is inactive: 87%.

Consider `CC(Sc1nnc(-c2ccccc2Br)o1)C(=O)Nc1cccc(Cl)c1` (stereo not given), for which the survival was inactive: 101%.

With `COc1ccc2c(c1)C(C)=CC(C)(C)N2C(=O)Cn1cnc2c(cnn2-c2ccccc2)c1=O`, the survival was inactive: 101%.

With `O=C(Cc1ccccc1)N(Cc1cccnc1)c1nc2ccc(Cl)cc2s1`, the survival is inactive: 59%.

Regarding `CC(=O)c1cccc(NC(=O)CSc2nnc3ccc(-c4ccc(F)cc4)nn23)c1`, the survival is inactive: 69%.

Take `CCCOc1ccc(C(=O)Nc2ccc3oc(-c4ccc5ccccc5c4)nc3c2)cc1`: the survival was inactive: 132%.

Take `COc1ccc(NC(=O)c2ccc3c(SCC(=O)O)c4c(nc3c2)CCCC4)cc1OC`: the survival was inactive: 126%.

Consider `O=C(Nc1ccc(Br)cc1F)c1cc(S(=O)(=O)NC2CCCC2)ccc1F`, for which the survival was inactive: 131%.

As to `CCOC(=O)c1cccc(-n2nnc3c(sc4nc(C)c(Br)c(C)c43)c2=O)c1`, the survival is inactive: 87%.

Take `Cc1sc2ncn(CC(=O)Nc3ccc(F)cc3Cl)c(=O)c2c1S(=O)(=O)N1CCN(c2ncccn2)CC1`: the survival is inactive: 82%.

Regarding `O=C(NC1CCCCC1)C1CCCN1C(=O)NCc1ccccc1` (stereo not given), the survival is inactive: 100%.

For the compound `O=C(NCCc1ccccc1)c1cc(-c2ccc(Br)cc2)on1`, the survival was inactive: 79%.

In the case of `CCOC(=O)c1c(C)oc2ncnc(N3CCN(c4ccc(C)cc4C)CC3)c12`, the survival was inactive: 88%.

As for `Cc1cc(C)n(C(=O)c2ccoc2C)n1`, the survival is inactive: 105%.

Consider `CCn1c(CNC(=O)c2ccccc2F)nnc1SCC(=O)NC1CCCCC1C` (stereo not given), for which the survival was inactive: 95%.

On to `CCOC(=O)c1ccccc1NC(=O)Cn1c(=O)n(CCC(=O)NCc2ccccc2OC)c(=O)c2ccccc21`, for which the survival is inactive: 94%.

In the case of `Cn1c(=O)c2c(nc(Oc3ccc(C#N)cc3)n2Cc2ccc(Cl)cc2Cl)n(C)c1=O`, the survival is inactive: 118%.

Take `COc1cccc(-c2nnc3n(Cc4ccc(C)cc4)c(=O)c4ccccc4n23)c1O`: the survival is inactive: 86%.

With `CCCCN(Cc1cccs1)S(=O)(=O)c1cc(-c2cc(C)no2)ccc1C`, the survival is inactive: 67%.

As to `CCN1CCN(c2csc3ccc(F)cc3c2=O)CC1`, the survival was inactive: 71%.

Consider `Cc1cccn2c(=O)cc(CSc3nnc(NC(=O)COc4ccc(F)cc4)s3)nc12`, for which the survival was active: -4%.

As for `COc1ccc(-c2nc3scc(CCNS(=O)(=O)c4c(C)noc4C)n3n2)cc1OC`, the survival was inactive: 123%.

With `COc1cccc(CNC(=O)c2[nH]c3cc(C)ccc3c2Sc2ccccc2)c1`, the survival was inactive: 87%.

On to `CCOC(=O)c1c(S(=O)(=O)NCC(=O)N2CCN(c3cccc(Cl)c3)CC2)c(C)n(C)c1C`, for which the survival was inactive: 117%.

In the case of `Cc1cccc(NC(=O)CSc2nnc3scc(-c4ccccc4)n23)c1`, the survival is inactive: 44%.

On to `COCCn1c(C)cc(C=C2C(=O)NC(=O)NC2=O)c1C`, for which the survival is inactive: 100%.

For the compound `COc1ccccc1NC(=O)c1oc2ccccc2c1NC(=O)C(C)C`, the survival was inactive: 86%.

For `O=C1CCc2cc(S(=O)(=O)NCc3ccc(Cl)cc3)cc3c2N1CC3`, the survival was inactive: 98%.

On to `COc1cccc(-c2nnc(-c3cc4cc(Cl)ccc4oc3=O)o2)c1`, for which the survival was inactive: 132%.

As to `COc1cc(-c2noc(CSc3nc(-c4ccc(F)cc4)cc(=O)[nH]3)n2)cc(OC)c1OC`, the survival was inactive: 69%.

In the case of `Cc1ccccc1CNC(=O)c1ccccc1NC(=O)c1nsc2ccccc12`, the survival was inactive: 120%.

As to `CC(C)(C)c1ccc(CSc2nc3c(c(=O)[nH]2)CCCC3)cc1`, the survival was inactive: 111%.

In the case of `O=C(Nc1ccc(Cl)c(C(F)(F)F)c1)C1CCCN(S(=O)(=O)c2cccc3cccnc23)C1` (stereo not given), the survival is inactive: 65%.

Take `CC1CCN(S(=O)(=O)c2ccc3c(c2)c(=O)c(C(=O)NCc2ccc(Cl)cc2)cn3C)CC1`: the survival was inactive: 84%.

`COc1ccccc1NC(=O)Cn1cnc2c(nc3n2CCCCC3)c1=O`: the survival is inactive: 72%.

Consider `CCCCc1c(C(=O)O)cccc1C(=O)O`, for which the survival was inactive: 126%.

In the case of `CCC1CCC(C(=O)NC(C(=O)NCCN(CC(C)C)CC(C)C)C(C)C)CC1` (stereo not given), the survival was inactive: 70%.

For the compound `CCOc1ccc(Nc2c(S(=O)(=O)c3ccc(Cl)cc3)cnc3ccc(OC)cc23)cc1`, the survival is inactive: 88%.

Take `COCCN(Cc1cc2ccc(C)c(C)c2nc1Cl)C(=O)N1CCOCC1`: the survival was inactive: 104%.

On to `O=C(Nc1ccc(F)cc1)N1CCN(c2ccc3nnc(-c4ccc(F)cc4)n3n2)CC1`, for which the survival was inactive: 81%.

In the case of `Cc1ccc(-n2nnc(-c3nsc(NC(=O)c4ccccc4C)n3)c2C)cc1Cl`, the survival was inactive: 159%.

On to `Cc1ccc(CNC(=O)C2CCN(C(=O)c3ccc(-n4ccc5ccccc54)s3)CC2)cc1`, for which the survival was inactive: 56%.

Turning to `COc1ccc(-c2cn3c(n2)sc2cc(C(=O)NCc4cccs4)ccc23)cc1`, the survival is inactive: 70%.

As to `COc1ccc(-c2c3c(=O)n(C)c(=O)n(C)c3cn2-c2cccc(N)c2)cc1`, the survival is inactive: 83%.

For `CCOC(=O)CC(NC(=O)CCc1c(C)nc2c(-c3ccccc3)c(C)nn2c1C)c1ccc(C)cc1` (stereo not given), the survival was inactive: 98%.

For the compound `COc1cccc(CN2C(=O)N(c3ccc(C)cc3)C(=O)C2CC(=O)Nc2cc(OC)cc(OC)c2)c1` (stereo not given), the survival is inactive: 148%.

For the compound `COc1ccc(Cn2ccc3nc(C)c(C(=O)Nc4ccc(F)cc4)cc3c2=O)cc1`, the survival is active: -3%.

Take `COCCCNC(=O)c1[nH]c2cc(OC)ccc2c1Sc1ccc(C)cc1`: the survival was inactive: 122%.

With `CCn1cc(C(=O)NCCc2ccc(Cl)cc2)c(=O)c2cc(S(=O)(=O)N3CCc4ccccc4C3)ccc21`, the survival was inactive: 75%.

As for `COCCn1c(=S)[nH]c2ccccc2c1=O`, the survival was inactive: 105%.

As to `Cc1cccc(NC(=O)CSc2nc3ccc(NC(=O)COc4ccc(Cl)cc4)cc3s2)c1`, the survival is inactive: 85%.

As for `Cc1c(NC(=O)Cc2ccc(F)cc2)cccc1-c1nc2cccnc2s1`, the survival is inactive: 89%.

Consider `O=C(Nc1nnc(SCc2cc(=O)c3ccccc3[nH]2)s1)c1ccccc1`, for which the survival was inactive: 85%.

As to `Cc1cccc(NC(=O)c2cc3c(=O)n(Cc4ccco4)ccc3nc2C)c1`, the survival is inactive: 68%.

In the case of `Cc1nn(-c2ccccc2)c2c1N(CC(=O)NCc1ccc(N(C)C)cc1)C(=O)CS2`, the survival was inactive: 73%.

As to `Fc1ccc(-c2nc(-c3cccs3)c(-c3cccs3)[nH]2)cc1`, the survival was inactive: 79%.

`Cc1ccc2cc3cc(C(=O)N4CCN(c5cccc(C(F)(F)F)c5)CC4)sc3nc2c1`: the survival is inactive: 89%.

With `CCC(=O)N1CCc2cc(S(=O)(=O)CCC(=O)N3CCN(c4ccccc4Cl)CC3)ccc21`, the survival is inactive: 78%.

`CN(c1ncnc2c1c(-c1ccccc1)cn2-c1ccc(F)cc1)C1CCCCC1`: the survival is inactive: 124%.

Consider `O=C(NCCOCCO)C(=O)Nc1c2c(nn1-c1ccc(F)cc1)CSC2`, for which the survival is inactive: 71%.

As to `Cc1ccc(N(Cc2cccs2)C(=O)c2ccccc2)cc1`, the survival was inactive: 91%.

For `O=C(NCCn1cc(SCc2cccc(F)c2)c2ccccc21)c1cccc(C(F)(F)F)c1`, the survival is active: 8%.

For `CCOC(=O)c1cc(-c2ccccc2)n(CCC(=O)Nc2ccc(C(F)(F)F)cc2)c1C`, the survival was inactive: 129%.

As for `Clc1ccccc1Cn1cccc1C1=NC(Cc2ccccc2)CO1` (stereo not given), the survival is inactive: 25%.

As for `COc1ccc(-c2nc3ccc(NS(C)(=O)=O)cc3o2)cc1`, the survival is inactive: 89%.

For `Cn1c(SCC(N)=O)nc2c([nH]c3ccccc32)c1=O`, the survival was inactive: 63%.

In the case of `O=C(O)c1ccc(Nc2nc(-c3ccccc3)c3cc(Br)ccc3n2)cc1`, the survival was inactive: 57%.

Regarding `CCCC1OC2CC3C4CCC5=CC(=O)C=CC5(C)C4C(O)CC3(C)C2(C(=O)O)O1` (stereo not given), the survival was inactive: 107%.

Consider `CN1C(=O)C(CC(=O)NCC2CCCCC2)SC1=Nc1ccccc1` (stereo not given), for which the survival is inactive: 99%.

For `N#CC1=C(N)C(C#N)(C#N)C(c2ccco2)C2CN(Cc3ccccc3)CC=C12` (stereo not given), the survival was inactive: 100%.

In the case of `C=CCn1c(C(=O)OCC)cc2oc(C)cc21`, the survival was inactive: 111%.

`NC(CCc1nc2ccccc2[nH]1)C(=O)O` (stereo not given): the survival is inactive: 105%.

On to `CC1=CCC(C(=O)Nc2nc3ccccc3s2)C(C(=O)O)C1` (stereo not given), for which the survival was inactive: 102%.

With `COc1ccc(-n2c(SCC(=O)Nc3nnc(C)s3)nc3c([nH]c4ccccc43)c2=O)cc1`, the survival is inactive: 88%.

Regarding `CCOC(=O)c1scc(-c2ccc(C)cc2)c1S(=O)(=O)Nc1cccc(CC)c1`, the survival is inactive: 73%.

Consider `Cc1cccc(C(=O)Nc2cccnc2)c1`, for which the survival is inactive: 110%.

Take `Cc1onc(-c2ccc(Br)cc2)c1C(=O)Nc1ccc(Br)cc1F`: the survival was inactive: 117%.

In the case of `O=C(NCCc1ccccc1)c1c(O)c2cccc3c2n(c1=O)CC3`, the survival was inactive: 108%.

Regarding `CC(C)N(C(=O)c1cc2c(Cl)nc3ccccc3c2s1)C1CCCCC1`, the survival was active: -1%.

With `COc1cccc2sc(N3CCN(C(=O)CS(=O)(=O)c4ccc(Cl)cc4)CC3)nc12`, the survival is active: -6%.

For `CCOC(=O)c1ccccc1Nc1cc(C)nc2nc(-c3ccco3)nn12`, the survival was inactive: 133%.

Regarding `Cc1cccc(C(=O)Nc2cc3c(cc2N2CCOCC2)n(C)c(=O)n3C)c1`, the survival is inactive: 84%.

On to `Cc1cc(C)c(S(=O)(=O)N2CCN(Cc3nc4ccc(C)cc4o3)CC2)c(C)c1`, for which the survival was inactive: 73%.

Take `CC1=C(C(=O)Nc2cc(C)ccc2C)C2(CCCCCC2)OC1=O`: the survival was inactive: 70%.

For the compound `O=C(NCCCN1CCN(c2ccccc2)CC1)c1nnc(Cc2ccc(F)cc2)o1`, the survival was inactive: 98%.
